Changes are numbered by the printed parent chain.

In experiment [1] the target is T1, CAIX on the surface of LS174T and SK-RC-52 cells (UniProt Q16790 38-459). Briefly: flow cytometry on LS174T cells, 10 ug/ml. For orientation: In flow cytometry, cells or beads pass a laser one at a time.
Experiment [2] deals with T2, Human CAIX (carbonic anhydrase IX) (human, UniProt Q16790 59-414). Briefly: SPR (Biacore 2000), human CAIX immobilized on a CM5 chip, analyte 1 µM, blank surface subtracted.
Experiment [3] deals with T1, CAIX on the surface of LS174T and …. Briefly: immunofluorescence microscopy of LS174T cells, detection with goat anti-Z variant Ig and Alexa488-labeled anti-goat antibody [panel C].
Experiment [4] has the same target. Briefly: blocking of cell-bound radioactivity on SK-RC-52 cells: 100-fold excess of the unlabeled Z variant 15 min before 13 nM 99mTc-(HE)3-Z09781 [panel A].
The target is the same in experiment [5]. Briefly: LigandTracer on SK-RC-52 cells, second binding event (KD2).
The target is the same in experiment [6]. Briefly: LigandTracer on SK-RC-52 cells, first binding event (kd1).
Experiment [7] shares this target. The experiment can be described thus: LigandTracer on SK-RC-52 cells, second binding event (ka2).
Experiment [8] shares this target. The experiment can be described thus: LigandTracer on SK-RC-52 cells, first binding event (ka1).
The target is the same in experiment [9]. Briefly: LigandTracer on SK-RC-52 cells, first binding event (KD1).
Experiment [10] has the same target. Briefly: immunofluorescence microscopy of LS174T cells, detection with goat anti-Z variant Ig and Alexa488-labeled anti-goat antibody [panel A].
For experiment [11] the target is unchanged. The experiment can be described thus: immunofluorescence microscopy of LS174T cells, detection with goat anti-Z variant Ig and Alexa488-labeled anti-goat antibody [panel B].
In experiment [12] the target is T2, Human CAIX (carbonic anhydrase IX). The experiment can be described thus: ELISA screening, periplasmic Z-Z03639 fusion captured by His6-(Z01157)2, biotinylated human CAIX 0.5 or 1 ug/ml.

B1: His6-(Z04191)2-Cys-NEM (designed binder)
chain: MGSSHHHHHHLQVDAKYAKEDVNAWQEIIKLPNLTIFQRDAFIYKLWDDPSQSSELLAEAKKLNDAQAPKVDAKYAKEDVNAWQEIIKLPNLTIFQRDAFIYKLWDDPSQSSELLAEAKKLNDAQAPKVDC
modifications: C-terminal Cys reacted with N-ethylmaleimide (NEM)
notes: head-to-tail dimer in one chain; also called dimeric Z04191
Take B1: the binding result in [1] and in experiment [2] was “binds” in each case.

B2: His6-(Z04196)2-Cys-NEM (designed binder)
chain: MGSSHHHHHHLQVDAKYAKEWKFASIEIADLPNLTQHQKDAFIFKLWDDPSQSSELLAEAKKLNDAQAPKVDAKYAKEWKFASIEIADLPNLTQHQKDAFIFKLWDDPSQSSELLAEAKKLNDAQAPKVDC
modifications: C-terminal Cys reacted with N-ethylmaleimide (NEM)
notes: head-to-tail dimer in one chain; also called dimeric Z04196
Consider B2, for which the binding result in experiment [1] and in [2] was “binds” each time.

B3: His6-(Z04208)2-Cys-NEM (designed binder)
chain: MGSSHHHHHHLQVDAKYAKEHEWAGVEIQSLPNLTTQQKHAFIYKLWDDPSQSSELLAEAKKLNDAQAPKVDAKYAKEHEWAGVEIQSLPNLTTQQKHAFIYKLWDDPSQSSELLAEAKKLNDAQAPKVDC
modifications: C-terminal Cys reacted with N-ethylmaleimide (NEM)
notes: head-to-tail dimer in one chain; also called dimeric Z04208
In the case of B3, the binding result in [3] and in experiment [2] was “binds” throughout.

B4: (HE)3-Z09781, unlabeled (designed binder)
chain: HEHEHEAEAKYAKENLFAGWEIDDLPNLTEDQRNAFIYKLWDDPSQSSELLSEAKKLNDSQAPKVD
notes: also called unlabeled Z variant
As for B4, the binding result in experiment [4] is on record as “binds”.

B5: ^99mTc-(HE)3-Z09781 (designed binder)
chain: B4 chain
modifications: [99mTc(CO)3]+ bound to the N-terminal HEHEHE tag
notes: also called 99mTc-labeled (HE)3-Z09781; ^99mTc-Z09781
As to B5, the values for the Kd in experiment [5] and in experiment [9] were 130 nM and no more than 1.3 nM, respectively. The molecule also returned a koff in experiment [6] of no more than 1e-05 s⁻¹. The kon was 13000 M⁻¹ s⁻¹ in experiment [7] and 7400 M⁻¹ s⁻¹ in experiment [8].

B6: ^99mTc-(HE)3-Z09784 (designed binder)
chain: B4 chain with N15W, L16W, F17W, W20I, D23A, E30Q, D31Q, N34D
modifications: [99mTc(CO)3]+ bound to the N-terminal HEHEHE tag
notes: also called 99mTc-labeled (HE)3-Z09784
With B6, the dissociation constant (Kd) in [5] was 75 nM; in [9], 9.1 nM. The koff in [6] was 0.00011 s⁻¹. Moreover, the on-rate (kon) in [7] worked out at 34000 M⁻¹ s⁻¹; in [8], 12000 M⁻¹ s⁻¹.

B7: (HE)3-Z09784, unlabeled (designed binder)
chain: B4 chain with N15W, L16W, F17W, W20I, D23A, E30Q, D31Q, N34D
notes: as for B4
On to B7, for which the binding result in [4] is listed as “binds”.

B8: (HE)3-Z09783, unlabeled (designed binder)
chain: B4 chain with L16I, E30D, D31E
notes: as for B4
B8: the binding result in experiment [4] is reported as “binds”.

B9: (HE)3-Z09782, unlabeled (designed binder)
chain: B4 chain with D23S, E30D, D31Y
notes: as for B4
For B9, the binding result in [4] is recorded as “binds”.

B10: ^99mTc-(HE)3-Z09783 (designed binder)
chain: B4 chain with L16I, E30D, D31E
modifications: [99mTc(CO)3]+ bound to the N-terminal HEHEHE tag
notes: also called 99mTc-labeled (HE)3-Z09783
In the case of B10, the Kd is 61 nM in experiment [5] and 4.5 nM in [9]. This molecule also returned a koff in [6] of 2.7e-05 s⁻¹. Further, the kon in experiment [7] stood at 3800 M⁻¹ s⁻¹; in [8], 5900 M⁻¹ s⁻¹.

B11: ^99mTc-(HE)3-Z09782 (designed binder)
chain: B4 chain with D23S, E30D, D31Y
modifications: [99mTc(CO)3]+ bound to the N-terminal HEHEHE tag
notes: also called 99mTc-labeled (HE)3-Z09782
Regarding B11, the koff in experiment [6] was found to be 1.9e-05 s⁻¹. In experiment [8], this molecule registered a kon of 3300 M⁻¹ s⁻¹. This molecule also registered a Kd in experiment [9] of 6.1 nM.

B12: His6-(Z04421)2-Cys-NEM (designed binder)
chain: MGSSHHHHHHLQVDAKYAKEDRYAWTEIHKLPNLTVRQQNAFIYKLWDDPSQSSELLAEAKKLNDAQAPKVDAKYAKEDRYAWTEIHKLPNLTVRQQNAFIYKLWDDPSQSSELLAEAKKLNDAQAPKVDC
modifications: C-terminal Cys reacted with N-ethylmaleimide (NEM)
notes: head-to-tail dimer in one chain; also called dimeric Z04421
For B12, the binding result in [10] and in experiment [2] was “binds” each time.

B13: His6-(Z04187)2-Cys-NEM (designed binder)
chain: MGSSHHHHHHLQVDAKYAKENLWAGWEIDDLPNLTHSQRNAFIYKLWDDPSQSSELLAEAKKLNDAQAPKVDAKYAKENLWAGWEIDDLPNLTHSQRNAFIYKLWDDPSQSSELLAEAKKLNDAQAPKVDC
modifications: C-terminal Cys reacted with N-ethylmaleimide (NEM)
notes: head-to-tail dimer in one chain; also called dimeric Z04187
As for B13, the binding result in [11] and in experiment [2] was “binds” each time.

B14: AQHDEALE-[Z04421]-VDYV-[Z03639]-YVPG (designed binder)
chain: AQHDEALEVDAKYAKEDRYAWTEIHKLPNLTVRQQNAFIYKLWDDPSQSSELLAEAKKLNDAQAPKVDYVVDNKFNKELGWATWEIFNLPNLNGVQVKAFIDSLRDDPSQSANLLAEAKKLNDAQAPKYVPG
notes: periplasmic fraction
In the case of B14, in [12], the binding result is reported as “binds”.

As a reminder, the Kd is a measure of binding affinity in units of concentration. The low end stands for tighter binding, the high end for weaker binding. What is called koff is the rate constant with which the complex falls apart. Lower therefore signals slow dissociation. As usually defined, the kon is a measure of how fast the partners come together.

For the origin of these results see patent US20180230235A1 (Affibody, published 2018).
